Measurements published in the supplement of paper PMC4604168 (melanoma cell lines).
This is one part of the list. Most values come without repeats; read them as rough.

Assays:
Assay in all cases: cell count relative to DMSO control; melanoma cells; higher = more viable cells
Settings in all cases: library dose: standard library concentration; 72 h; first compound 2 µM
G361 = system: G361
IPC-298 = system: IPC-298
IST-MEL1 = system: IST-MEL1
LB2518-MEL = system: LB2518-MEL
LOXIMVI = system: LOXIMVI
MEL-HO = system: MEL-HO
MZ2-MEL = system: MZ2-MEL
MeWo = system: MeWo
RPMI7951 = system: RPMI7951
RVH-421 = system: RVH-421
SkMel28 = system: SkMel28
SkMel2 = system: SkMel2
SkMel30 = system: SkMel30
SkMel5 = system: SkMel5
UACC257 = system: UACC257
UACC62 = system: UACC62
WM115 = system: WM115
WM1716 = system: WM1716
WM1745 = system: WM1745
WM3526 = system: WM3526
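Also: cells treated in 1,536-well plates, then fixed and DAPI-stained, with nuclei counted from automated high-throughput microscope images.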

Row | Compound | cell count (G361) [%] | cell count (IPC-298) [%] | cell count (IST-MEL1) [%] | cell count (LB2518-MEL) [%] | cell count (LOXIMVI) [%] | cell count (MEL-HO) [%] | cell count (MZ2-MEL) [%] | cell count (MeWo) [%] | cell count (RPMI7951) [%] | cell count (RVH-421) [%] | cell count (SkMel28) [%] | cell count (SkMel2) [%] | cell count (SkMel30) [%] | cell count (SkMel5) [%] | cell count (UACC257) [%] | cell count (UACC62) [%] | cell count (WM115) [%] | cell count (WM1716) [%] | cell count (WM1745) [%] | cell count (WM3526) [%]
1 | CCCCCCCCCCCCCCCCCCOP(=O)([O-])OC1CC[N+](C)(C)CC1 [Perifosine] + C[C@]1(O)C[C@@H](c2nc(-c3ccc4ccc(-c5ccccc5)nc4c3)c3c(N)nccn32)C1 [OSI906] (partner dose 2 µM) | 74.3 | 96.2 | 86.7 | 82.2 | 63.3 | 77 | 88.2 | 74.8 | 61.7 | 83.8 | 69.1 | 74.6 | 101 | 60.8 | 81 | 60.4 | 99.7 | 92.4 | 74.7 | 68.5
2 | Cn1sc(=O)n(Cc2ccccc2)c1=O + O=C(O)c1ccc(-c2c[nH]c3ncc(-c4ccccc4)cc23)cc1C1CCCC1 [GSK650394] (partner dose 0.8 µM) | 55.9 | 96 | 231 | 109 | 79.8 | 78.2 | 93 | 86.4 | 50.5 | 99.5 | 79.5 | 79.5 | 84.7 | 94.3 | 72.5 | 90 | 73.8 | 76.4 | 83.7 | 82.9
3 | Cn1sc(=O)n(Cc2ccccc2)c1=O + C=CCn1c(=O)c2cnc(Nc3ccc(N4CCN(C)CC4)cc3)nc2n1-c1cccc(C(C)(C)O)n1 [MK1775] (partner dose 0.1 µM) | 97.6 | 87.1 | 100 | 57.9 | 98.6 | 101 | 128 | 86 | 63.4 | 93 | 73.1 | 81.5 | 78.7 | 67.6 | 92.1 | 62.5 | 67.4 | 106 | 56.6 | 96.4
4 | CCCCCCCCCCCCCCCCCCOP(=O)([O-])OC1CC[N+](C)(C)CC1 [Perifosine] + CN(C)S(=O)(=O)c1ccc2c(c1)/C(=C/c1cc3c([nH]1)CCCC3)C(=O)N2 [SU6656] (partner dose 2 µM) | 72.9 | 67.2 | 83.8 | 67.6 | 87.8 | 91.5 | 95.6 | 80.4 | 24.2 | 86.5 | 67.7 | 82.4 | 79.1 | 85.8 | 72.4 | 96.2 | 55.3 | 67.8 | 60.2 | 74.8
5 | CCCCCCCCCCCCCCCCCCOP(=O)([O-])OC1CC[N+](C)(C)CC1 [Perifosine] + Cc1ccc(Nc2nccc(N(C)c3ccc4c(C)n(C)nc4c3)n2)cc1S(N)(=O)=O [Pazopanib] (partner dose 2 µM) | 62.6 | 58.1 | 80 | 74.5 | 70.1 | 72.9 | 71.5 | 87.6 | 47.3 | 77.3 | 85.4 | 80 | 66.9 | 80.6 | 73.7 | 62 | 80.6 | 70.7 | 88.1 | 70.1
6 | C[C@@H](N)c1ccc(C(=O)Nc2ccnc3[nH]ccc23)cc1 + CN(C)S(=O)(=O)c1ccc2c(c1)/C(=C/c1cc3c([nH]1)CCCC3)C(=O)N2 [SU6656] (partner dose 2 µM) | 61.2 | 69.5 | 69.2 | 57.1 | 84 | 71.5 | 48.1 | 38.9 | 26.7 | 56.2 | 49.4 | 59.3 | 85.4 | 54.4 | 66.5 | 67.5 | 34.6 | 24.8 | 32.8 | 64.1
7 | Cn1sc(=O)n(Cc2ccccc2)c1=O + Cc1cc(N2CCOCC2)cc2[nH]c(-c3c(NC[C@@H](O)c4cccc(Cl)c4)cc[nH]c3=O)nc12 [BMS536924] (partner dose 1 µM) | 75.5 | 82.7 | 90.9 | 79.4 | 82.9 | 104 | 109 | 72 | 96.2 | 107 | 88.4 | 87.8 | 80.9 | 66.5 | 106 | 75.4 | 68 | 95.4 | 47.6 | 72.2
8 | C[C@@H](N)c1ccc(C(=O)Nc2ccnc3[nH]ccc23)cc1 + Cn1cnc2c(F)c(Nc3ccc(Br)cc3Cl)c(C(=O)NOCCO)cc21 [selumetinib] (partner dose 0.075 µM) | 72.6 | 47.3 | 74.8 | 35 | 86.1 | 43.7 | 32.5 | 64 | 38.6 | 33.6 | 55.9 | 55.3 | 53 | 54.2 | 47.4 | 62 | 72.1 | 56.6 | 49.1 | 53.2
9 | CCCCCCCCCCCCCCCCCCOP(=O)([O-])OC1CC[N+](C)(C)CC1 [Perifosine] + Cc1cc(N2CCOCC2)cc2[nH]c(-c3c(NC[C@@H](O)c4cccc(Cl)c4)cc[nH]c3=O)nc12 [BMS536924] (partner dose 1 µM) | 101 | 110 | 94.7 | 93.6 | 89.7 | 99.6 | 130 | 80.5 | 29 | 112 | 51.1 | 67.4 | 88 | 111 | 99.7 | 92.8 | 129 | 103 | 66.5 | 74.9
